{"source": "the supplement of paper PMC8728848", "binders": {"B1": {"name": "HA-11100 (Pseudomonas aeruginosa), Q02G51_PSEAB (protein)", "chain": "QFNPNEIKISQQGKTTLIDQSTQRAIINWKGFDVSADEAVRFNQPGVTSSTLNRVTAGQESVIAGRISAPGQVIIYNSNGVVFSGSAKVDVGSLITTTANISDEHFRQGKLIFDQPGNPDARIVNDGSISVAEKGLAAFVAPSVANNGVINARLGTVAMAAGNAATIDLYG"}}, "assay_in_all_cases": "glycan array binding signal (z-score within array); higher = stronger binding", "conditions_in_all_cases": "glycan notation: IUPAC condensed, linker removed", "key": {"[1]": {"target": "GlcNAc(b1-3)Gal(b1-4)GlcNAc(b1-3)Gal(b1-4)GlcNAc(b1-2)Man(a1-3)[GlcNAc(b1-3)Gal(b1-4)GlcNAc(b1-3)Gal(b1-4)GlcNAc(b1-2)Man(a1-6)]Man(b1-4)GlcNAc(b1-4)GlcNAc", "in_short": "(§1)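 Glycan array data were curated from 3228 arrays in the Consortium for Functional Glycomics database and kept only where the protein sequence was available. Glycan names were converted to IUPAC-condensed notation, and columns mapping to the same glycan were averaged. The binding signal is a within-array Z-score, averaged across arrays of the same protein sequence at different concentrations or buffers and across linkers. Negative Z-scores can be read as non-binding.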"}, "[2]": {"target": "GlcNAc(b1-3)Gal(b1-4)GlcNAc(b1-3)Gal(b1-4)GlcNAc(b1-2)Man(a1-3)[GlcNAc(b1-3)Gal(b1-4)GlcNAc(b1-3)Gal(b1-4)GlcNAc(b1-2)Man(a1-6)]Man(b1-4)GlcNAc(b1-4)[Fuc(a1-6)]GlcNAc", "in_short": "as §1"}, "[3]": {"target": "GlcNAc(b1-3)Gal(b1-4)GlcNAc(b1-3)Gal(b1-4)GlcNAc(b1-2)[GlcNAc(b1-3)Gal(b1-4)GlcNAc(b1-3)Gal(b1-4)GlcNAc(b1-6)]Man(a1-6)[GlcNAc(b1-3)Gal(b1-4)GlcNAc(b1-3)Gal(b1-4)GlcNAc(b1-2)Man(a1-3)]Man(b1-4)GlcNAc(b1-4)[Fuc(a1-6)]GlcNAc", "in_short": "as §1"}, "[4]": {"target": "GlcNAc(b1-3)Gal(b1-4)GlcNAc(b1-3)Gal(b1-4)GlcNAc(b1-3)Gal(b1-4)GlcNAc(b1-2)Man(a1-3)[GlcNAc(b1-3)Gal(b1-4)GlcNAc(b1-3)Gal(b1-4)GlcNAc(b1-3)Gal(b1-4)GlcNAc(b1-2)Man(a1-6)]Man(b1-4)GlcNAc(b1-4)GlcNAc", "in_short": "as §1"}, "[5]": {"target": "GlcNAc(b1-3)Gal(b1-4)GlcNAc(b1-3)Gal(b1-4)GlcNAc(b1-3)Gal(b1-4)GlcNAc(b1-2)Man(a1-3)[GlcNAc(b1-3)Gal(b1-4)GlcNAc(b1-3)Gal(b1-4)GlcNAc(b1-3)Gal(b1-4)GlcNAc(b1-2)Man(a1-6)]Man(b1-4)GlcNAc(b1-4)[Fuc(a1-6)]GlcNAc", "in_short": "as §1"}, "[6]": {"target": "GlcNAc(b1-3)Gal(b1-4)GlcNAc(b1-3)Gal(b1-4)GlcNAc(b1-3)Gal(b1-4)GlcNAc(b1-2)[GlcNAc(b1-3)Gal(b1-4)GlcNAc(b1-3)Gal(b1-4)GlcNAc(b1-3)Gal(b1-4)GlcNAc(b1-6)]Man(a1-6)[GlcNAc(b1-3)Gal(b1-4)GlcNAc(b1-3)Gal(b1-4)GlcNAc(b1-3)Gal(b1-4)GlcNAc(b1-2)Man(a1-3)]Man(b1-4)GlcNAc(b1-4)[Fuc(a1-6)]GlcNAc", "in_short": "as §1"}, "[7]": {"target": "GlcNAc(b1-3)Gal(b1-4)GlcNAc(b1-3)Gal(b1-4)GlcNAc(b1-3)Gal(b1-4)GlcNAc(b1-3)Gal(b1-4)GlcNAc(b1-2)Man(a1-3)[GlcNAc(b1-3)Gal(b1-4)GlcNAc(b1-3)Gal(b1-4)GlcNAc(b1-3)Gal(b1-4)GlcNAc(b1-3)Gal(b1-4)GlcNAc(b1-2)Man(a1-6)]Man(b1-4)GlcNAc(b1-4)GlcNAc", "in_short": "as §1"}, "[8]": {"target": "GlcNAc(b1-3)Gal(b1-4)GlcNAc(b1-3)Gal(b1-4)GlcNAc(b1-3)Gal(b1-4)GlcNAc(b1-3)Gal(b1-4)GlcNAc(b1-2)Man(a1-3)[GlcNAc(b1-3)Gal(b1-4)GlcNAc(b1-3)Gal(b1-4)GlcNAc(b1-3)Gal(b1-4)GlcNAc(b1-3)Gal(b1-4)GlcNAc(b1-2)Man(a1-6)]Man(b1-4)GlcNAc(b1-4)[Fuc(a1-6)]GlcNAc", "in_short": "as §1"}, "[9]": {"target": "GlcNAc(b1-3)Gal(b1-4)GlcNAc(b1-3)Gal(b1-4)GlcNAc(b1-3)Gal(b1-4)GlcNAc(b1-3)Gal(b1-4)GlcNAc(b1-2)[GlcNAc(b1-3)Gal(b1-4)GlcNAc(b1-3)Gal(b1-4)GlcNAc(b1-3)Gal(b1-4)GlcNAc(b1-3)Gal(b1-4)GlcNAc(b1-6)]Man(a1-6)[GlcNAc(b1-3)Gal(b1-4)GlcNAc(b1-3)Gal(b1-4)GlcNAc(b1-3)Gal(b1-4)GlcNAc(b1-3)Gal(b1-4)GlcNAc(b1-2)Man(a1-3)]Man(b1-4)GlcNAc(b1-4)[Fuc(a1-6)]GlcNAc", "in_short": "as §1"}, "[10]": {"target": "GlcNAc(b1-3)Gal(b1-4)GlcNAc(b1-3)Gal(b1-4)GlcNAc(b1-3)GalNAc", "in_short": "as §1"}, "[11]": {"target": "GlcNAc(b1-3)Gal(b1-4)GlcNAc(b1-3)GalNAc", "in_short": "as §1"}, "[12]": {"target": "GlcNAc(b1-3)Gal(b1-4)GlcNAc(b1-3)[GlcNAc(b1-3)Gal(b1-4)GlcNAc(b1-3)]GalNAc", "in_short": "as §1"}, "[13]": {"target": "GlcNAc(b1-3)Gal(b1-4)GlcNAc(b1-6)[Gal(b1-3)]GalNAc", "in_short": "as §1"}, "[14]": {"target": "GlcNAc(b1-3)Gal(b1-4)GlcNAc(b1-6)[GlcNAc(b1-3)Gal(b1-3)]GalNAc", "in_short": "as §1"}, "[15]": {"target": "GlcNAc(b1-3)Gal(b1-4)GlcNAc(b1-6)[GlcNAc(b1-3)]Gal(b1-4)GlcNAc", "in_short": "as §1"}, "GlcNAc(b1-3)GalNAc": {"target": "GlcNAc(b1-3)GalNAc", "in_short": "as §1"}, "GlcNAc(b1-3)Man": {"target": "GlcNAc(b1-3)Man", "in_short": "as §1"}, "[16]": {"target": "GlcNAc(b1-3)[GlcNAc(b1-4)][GlcNAc(b1-6)]GlcNAc", "in_short": "as §1"}, "[17]": {"target": "GlcNAc(b1-3)[GlcNAc(b1-6)]Gal(b1-4)GlcNAc", "in_short": "as §1"}, "[18]": {"target": "GlcNAc(b1-3)[GlcNAc(b1-6)]GalNAc", "in_short": "as §1"}, "[19]": {"target": "GlcNAc(b1-4)Gal(b1-4)GlcNAc", "in_short": "as §1"}, "GlcNAc(b1-4)GlcNAc": {"target": "GlcNAc(b1-4)GlcNAc", "in_short": "as §1"}, "[20]": {"target": "GlcNAc(b1-4)GlcNAc(b1-4)GlcNAc", "in_short": "as §1"}}, "note": "Some of the results follow.", "data": [{"binder": "B1", "values": [{"measurement": "glycan array binding signal (z-score)", "setting": "[1]", "value": 3.34}, {"measurement": "glycan array binding signal (z-score)", "setting": "[2]", "value": 0.011}, {"measurement": "glycan array binding signal (z-score)", "setting": "[3]", "value": 0.026}, {"measurement": "glycan array binding signal (z-score)", "setting": "[4]", "value": -0.332}, {"measurement": "glycan array binding signal (z-score)", "setting": "[5]", "value": -0.108}, {"measurement": "glycan array binding signal (z-score)", "setting": "[6]", "value": -0.285}, {"measurement": "glycan array binding signal (z-score)", "setting": "[7]", "value": -0.475}, {"measurement": "glycan array binding signal (z-score)", "setting": "[8]", "value": -0.474}, {"measurement": "glycan array binding signal (z-score)", "setting": "[9]", "value": -0.474}, {"measurement": "glycan array binding signal (z-score)", "setting": "[10]", "value": -0.437}, {"measurement": "glycan array binding signal (z-score)", "setting": "[11]", "value": -0.068}, {"measurement": "glycan array binding signal (z-score)", "setting": "[12]", "value": -0.292}, {"measurement": "glycan array binding signal (z-score)", "setting": "[13]", "value": -0.237}, {"measurement": "glycan array binding signal (z-score)", "setting": "[14]", "value": -0.263}, {"measurement": "glycan array binding signal (z-score)", "setting": "[15]", "value": -0.521}, {"measurement": "glycan array binding signal (z-score)", "setting": "GlcNAc(b1-3)GalNAc", "value": -0.06}, {"measurement": "glycan array binding signal (z-score)", "setting": "GlcNAc(b1-3)Man", "value": -0.231}, {"measurement": "glycan array binding signal (z-score)", "setting": "[16]", "value": -0.017}, {"measurement": "glycan array binding signal (z-score)", "setting": "[17]", "value": -0.045}, {"measurement": "glycan array binding signal (z-score)", "setting": "[18]", "value": -0.244}, {"measurement": "glycan array binding signal (z-score)", "setting": "[19]", "value": -0.214}, {"measurement": "glycan array binding signal (z-score)", "setting": "GlcNAc(b1-4)GlcNAc", "value": -0.246}, {"measurement": "glycan array binding signal (z-score)", "setting": "[20]", "value": -0.303}]}]}
